Experimental data as given in patent publication US20100249184A1 (MOUNT SINAI SCHOOL OF MEDICINE, published 2010).

B1: uPAR^S245A, full-length glycolipid-anchored, expressed on cells (receptor)
chain: not shown
modifications: GPI anchor
B2: soluble uPAR ([…]) E33A (receptor)
chain: not shown
modifications: glycosylated (expressed in CHO cells)
notes: range […]; Mutation in domain I; also called suPAR^E33A
B3: soluble uPAR ([…]) H249A (receptor)
chain: not shown
notes: range […]; also called suPAR^H249A
B4: soluble uPAR ([…]) L66A (receptor)
chain: not shown
notes: range […]
B5: soluble uPAR ([…]) S245A (receptor)
chain: not shown
notes: range […]; also called suPAR^S245A; S245A mutant uPAR
B6: soluble uPAR ([…]) R239A (receptor)
chain: not shown
notes: range […]; also called suPAR^R239A

What follows are binders tested against α5β1-integrin endogenous on HEK293, D-HEp3 and T-HEp3 cells (human, UniProt P08648 42-1049; P05556) (assay: cell-based or functional assay).
Chain of UniProt P08648 (P08648 42-1049, chain 1 of 2): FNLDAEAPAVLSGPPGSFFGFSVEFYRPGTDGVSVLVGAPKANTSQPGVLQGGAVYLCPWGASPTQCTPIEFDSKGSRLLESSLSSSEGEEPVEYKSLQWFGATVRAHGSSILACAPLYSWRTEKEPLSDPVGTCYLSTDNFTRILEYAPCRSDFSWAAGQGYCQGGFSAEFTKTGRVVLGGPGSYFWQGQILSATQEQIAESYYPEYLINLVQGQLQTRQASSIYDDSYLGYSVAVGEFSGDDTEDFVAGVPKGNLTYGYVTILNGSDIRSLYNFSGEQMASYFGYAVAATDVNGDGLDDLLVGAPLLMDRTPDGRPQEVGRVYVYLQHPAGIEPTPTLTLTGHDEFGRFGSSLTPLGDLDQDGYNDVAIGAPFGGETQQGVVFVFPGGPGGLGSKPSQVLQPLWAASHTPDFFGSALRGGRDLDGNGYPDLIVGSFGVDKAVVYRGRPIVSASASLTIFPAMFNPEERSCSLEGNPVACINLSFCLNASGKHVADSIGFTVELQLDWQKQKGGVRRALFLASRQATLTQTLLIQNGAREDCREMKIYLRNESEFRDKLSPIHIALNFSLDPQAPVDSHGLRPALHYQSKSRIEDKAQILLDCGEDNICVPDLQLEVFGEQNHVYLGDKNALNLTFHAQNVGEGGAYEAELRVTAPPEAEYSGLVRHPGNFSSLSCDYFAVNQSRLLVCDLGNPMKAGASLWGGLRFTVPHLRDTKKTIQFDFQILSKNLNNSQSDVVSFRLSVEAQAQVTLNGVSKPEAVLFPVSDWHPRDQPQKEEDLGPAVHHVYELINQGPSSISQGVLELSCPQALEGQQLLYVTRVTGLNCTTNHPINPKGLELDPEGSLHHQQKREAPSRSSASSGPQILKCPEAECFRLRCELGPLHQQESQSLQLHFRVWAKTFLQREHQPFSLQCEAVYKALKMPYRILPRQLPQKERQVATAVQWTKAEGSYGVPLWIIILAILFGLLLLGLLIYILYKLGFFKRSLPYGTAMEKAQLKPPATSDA
Chain of UniProt P08648 (P05556 21-798, chain 2 of 2, further chain): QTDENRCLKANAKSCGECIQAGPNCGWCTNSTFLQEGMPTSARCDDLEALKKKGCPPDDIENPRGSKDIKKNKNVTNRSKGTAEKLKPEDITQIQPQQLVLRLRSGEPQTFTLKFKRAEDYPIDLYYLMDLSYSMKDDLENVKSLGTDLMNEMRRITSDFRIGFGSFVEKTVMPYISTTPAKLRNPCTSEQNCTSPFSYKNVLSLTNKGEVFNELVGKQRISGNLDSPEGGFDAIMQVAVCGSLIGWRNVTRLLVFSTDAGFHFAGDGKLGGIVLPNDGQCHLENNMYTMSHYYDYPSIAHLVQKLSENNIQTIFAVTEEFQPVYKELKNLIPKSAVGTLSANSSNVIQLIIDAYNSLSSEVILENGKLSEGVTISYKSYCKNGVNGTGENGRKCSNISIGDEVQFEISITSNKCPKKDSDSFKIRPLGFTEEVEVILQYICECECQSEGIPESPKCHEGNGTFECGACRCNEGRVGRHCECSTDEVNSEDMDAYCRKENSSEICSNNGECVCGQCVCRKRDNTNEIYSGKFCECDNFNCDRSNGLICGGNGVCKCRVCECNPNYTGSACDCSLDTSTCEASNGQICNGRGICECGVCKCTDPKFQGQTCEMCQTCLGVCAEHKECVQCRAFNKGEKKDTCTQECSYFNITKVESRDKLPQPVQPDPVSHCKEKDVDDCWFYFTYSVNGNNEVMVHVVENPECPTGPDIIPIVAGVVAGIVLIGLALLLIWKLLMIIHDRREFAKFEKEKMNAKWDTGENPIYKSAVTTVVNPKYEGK

| Binder | adhesion of transfected HEK293 cells to fibronectin, fold over vector-transfected cells, 15 and 30 min [fold] | ratio of P-ERK to ERK, fold relative to vector control, D-HEp3 cells [fold] | ratio of P-ERK to ERK, fold relative to vector control, HEK293 cells [fold] |
| --- | --- | --- | --- |
| B1 | 1.2 | 1.9 | 1.2 |

What follows are binders tested against T1, pro-uPA^S356A (UniProt P00749) (assay: SPR, pro-uPA S356A immobilized; against uPAR wt).
T1 construct: Coupled to the Biacore chip by EDC/NHS (200-1000 RU); also called immobilized pro-uPA

| Binder | ΔΔG = RT ln[Kd(mut)/Kd(wt)] [kcal/mol] |
| --- | --- |
| B2 | 0.37 |
| B3 | 0.05 |
| B4 | 1.35 |
| B5 | -0.08 |
| B6 | 0.19 |

The binders below were run against T1, pro-uPA^S356A (assay: SPR (Biacore 3000, 20 °C), pro-uPA S356A immobilized, soluble uPAR 1-100 nM as analyte).

| Binder | koff [s⁻¹] | kon [M⁻¹ s⁻¹] |
| --- | --- | --- |
| B2 | 0.000219 | 252000 |
| B3 | 0.000192 | 384000 |
| B4 | 0.00106 | 226000 |
| B5 | 0.000214 | 528000 |
| B6 | 0.000148 | 233000 |

These binders were tested against T1, pro-uPA^S356A (assay: SPR (Biacore 3000, 20 °C), pro-uPA S356A immobilized, soluble uPAR 1-100 nM as analyte; Kd = koff/kon).

| Binder | Kd [nM] |
| --- | --- |
| B2 | 0.87 |
| B3 | 0.5 |
| B4 | 4.7 |
| B5 | 0.41 |
| B6 | 0.64 |
